Experiments:
Settings in all cases: 500 ppm by weight; mortality assessed usually between three and five days after treatment
Heliothis virescens = system: Heliothis virescens
Experimental: (§1) The test procedure adopted with regard to each pest, except nematodes, was essentially the same and composed supporting a number of the pests on a medium which was usually a substrate, a host plant or a foodstuff on which the pests feed, and treating either or both the medium and the pests with a composition. Pest mortality was assessed usually between three and five days after treatment Knockdown of housefly (Musca domestica) was assessed 15 minutes after treatment

Musca domestica = system: Musca domestica
Experimental: as §1

Tetranychus urticae = system: Tetranychus urticae
Experimental: as §1

Myzus persicae = test: Pesticidal test, Myzus persicae mortality
Experimental: as §1

Spodoptera exigua = test: Pesticidal test, Spodoptera exigua mortality
Experimental: as §1

Compound	HELIVI = Heliothis virescens, grading of mortality (score) (Heliothis virescens)	MUSCDO AK = Musca domestica (kill), grading of mortality (score) (Musca domestica)	TETRUR = Tetranychus urticae, grading of mortality (score) (Tetranychus urticae)	MYZUPE = Myzus persicae, grading of mortality (score) (Myzus persicae)	LAPHEG = Spodoptera exigua, grading of mortality (score) (Spodoptera exigua)
CCCc1nc2cc(CC(=O)N(C)c3snc(C)c3Cl)ccc2o1 [4(B3)]	0 (0 indicates less than 40% mortality)	0 (0 indicates less than 40% mortality)	0 (0 indicates less than 40% mortality)	5 (5 indicates 40-79% mortality)	5 (5 indicates 40-79% mortality)
CCCc1nc2cc(CC(=O)N(CC)c3snc(C)c3Cl)ccc2o1 [4(C3)]	0 (0 indicates less than 40% mortality)	5 (5 indicates 40-79% mortality)	9 (9 indicates 80-100% mortality)	9 (9 indicates 80-100% mortality)	9 (9 indicates 80-100% mortality)
CCCc1nc2cc(CC(=O)N(CCC)c3snc(C)c3Cl)ccc2o1 [4(D3)]	0 (0 indicates less than 40% mortality)	0 (0 indicates less than 40% mortality)	9 (9 indicates 80-100% mortality)	5 (5 indicates 40-79% mortality)	5 (5 indicates 40-79% mortality)
C=CCN(C(=O)Cc1ccc2oc(CCC)nc2c1)c1snc(C)c1Cl [4(E3)]	0 (0 indicates less than 40% mortality)	0 (0 indicates less than 40% mortality)	5 (5 indicates 40-79% mortality)	9 (9 indicates 80-100% mortality)	0 (0 indicates less than 40% mortality)
C#CCN(C(=O)Cc1ccc2oc(CCC)nc2c1)c1snc(C)c1Cl [4(F3)]	0 (0 indicates less than 40% mortality)	5 (5 indicates 40-79% mortality)	5 (5 indicates 40-79% mortality)	9 (9 indicates 80-100% mortality)	9 (9 indicates 80-100% mortality)
CCCc1nc2cc(CC(=O)N(COC)c3snc(C)c3Cl)ccc2o1 [4(K3)]	0 (0 indicates less than 40% mortality)	0 (0 indicates less than 40% mortality)	0 (0 indicates less than 40% mortality)	5 (5 indicates 40-79% mortality)	5 (5 indicates 40-79% mortality)
CCCc1nc2cc(CC(=O)N(COCC)c3snc(C)c3Cl)ccc2o1 [4(L3)]	9 (9 indicates 80-100% mortality)	5 (5 indicates 40-79% mortality)	9 (9 indicates 80-100% mortality)	9 (9 indicates 80-100% mortality)	9 (9 indicates 80-100% mortality)
CCCc1nc2cc(CC(=O)N(COCCOC)c3snc(C)c3Cl)ccc2o1 [4(M3)]	0 (0 indicates less than 40% mortality)	0 (0 indicates less than 40% mortality)	0 (0 indicates less than 40% mortality)	9 (9 indicates 80-100% mortality)	0 (0 indicates less than 40% mortality)
CCCCc1nc2cc(CC(=O)Nc3snc(C)c3Cl)ccc2o1 [5(A3)]	5 (5 indicates 40-79% mortality)	0 (0 indicates less than 40% mortality)	0 (0 indicates less than 40% mortality)	9 (9 indicates 80-100% mortality)	5 (5 indicates 40-79% mortality)
Cc1nsc(NC(=O)Cc2ccc3oc(C(C)C)nc3c2)c1Cl [8(A3)]	5 (5 indicates 40-79% mortality)	9 (9 indicates 80-100% mortality)	0 (0 indicates less than 40% mortality)	5 (5 indicates 40-79% mortality)	5 (5 indicates 40-79% mortality)
Cc1nsc(NC(=O)Cc2ccc3oc(C(C)(C)C)nc3c2)c1Cl [9(A3)]	9 (9 indicates 80-100% mortality)	0 (0 indicates less than 40% mortality)	9 (9 indicates 80-100% mortality)	5 (5 indicates 40-79% mortality)	5 (5 indicates 40-79% mortality)
CCC(C)c1nc2cc(CC(=O)Nc3snc(C)c3Cl)ccc2o1 (stereo not drawn) [10(A3)]	5 (5 indicates 40-79% mortality)	0 (0 indicates less than 40% mortality)	0 (0 indicates less than 40% mortality)	9 (9 indicates 80-100% mortality)	5 (5 indicates 40-79% mortality)
CCC(CC)c1nc2cc(CC(=O)Nc3snc(C)c3Cl)ccc2o1 [13(A3)]	0 (0 indicates less than 40% mortality)	5 (5 indicates 40-79% mortality)	9 (9 indicates 80-100% mortality)	9 (9 indicates 80-100% mortality)	0 (0 indicates less than 40% mortality)
Cc1nsc(NC(=O)Cc2ccc3oc(CC(C)C)nc3c2)c1Cl [14(A3)]	9 (9 indicates 80-100% mortality)	5 (5 indicates 40-79% mortality)	9 (9 indicates 80-100% mortality)	9 (9 indicates 80-100% mortality)	9 (9 indicates 80-100% mortality)
Cc1cc(NC(=O)Cc2ccc3oc(CC(C)(C)C)nc3c2)sn1 [15(A1)]	0 (0 indicates less than 40% mortality)	0 (0 indicates less than 40% mortality)	9 (9 indicates 80-100% mortality)	0 (0 indicates less than 40% mortality)	0 (0 indicates less than 40% mortality)
Cc1nsc(NC(=O)Cc2ccc3oc(CC(C)(C)C)nc3c2)c1Br [15(A4)]	0 (0 indicates less than 40% mortality)	9 (9 indicates 80-100% mortality)	9 (9 indicates 80-100% mortality)	9 (9 indicates 80-100% mortality)	9 (9 indicates 80-100% mortality)
Cc1nsc(NC(=O)Cc2ccc3nc(CC(C)(C)C)oc3c2)c1Cl [15(A23)]	0 (0 indicates less than 40% mortality)	0 (0 indicates less than 40% mortality)	9 (9 indicates 80-100% mortality)	5 (5 indicates 40-79% mortality)	5 (5 indicates 40-79% mortality)
Cc1nsc(N(C)C(=O)Cc2ccc3oc(CC(C)(C)C)nc3c2)c1Cl [15(B3)]	0 (0 indicates less than 40% mortality)	0 (0 indicates less than 40% mortality)	9 (9 indicates 80-100% mortality)	5 (5 indicates 40-79% mortality)	0 (0 indicates less than 40% mortality)
CCN(C(=O)Cc1ccc2oc(CC(C)(C)C)nc2c1)c1snc(C)c1Cl [15(C3)]	0 (0 indicates less than 40% mortality)	0 (0 indicates less than 40% mortality)	9 (9 indicates 80-100% mortality)	9 (9 indicates 80-100% mortality)	9 (9 indicates 80-100% mortality)
CCCN(C(=O)Cc1ccc2oc(CC(C)(C)C)nc2c1)c1snc(C)c1Cl [15(D3)]	5 (5 indicates 40-79% mortality)	0 (0 indicates less than 40% mortality)	9 (9 indicates 80-100% mortality)	9 (9 indicates 80-100% mortality)	5 (5 indicates 40-79% mortality)
C=CCN(C(=O)Cc1ccc2oc(CC(C)(C)C)nc2c1)c1snc(C)c1Cl [15(E3)]	9 (9 indicates 80-100% mortality)	0 (0 indicates less than 40% mortality)	9 (9 indicates 80-100% mortality)	9 (9 indicates 80-100% mortality)	5 (5 indicates 40-79% mortality)

Source: US6544989B2, “Benzazoles: benzoxazole, benzthiazole and benzimidazole derivatives” (Syngenta Limited, priority 1998, dated 2003)
